According to article PMC9911399, “Two distinct binding modes provide the RNA-binding protein RbFox with extraordinary sequence specificity”:
Where a chain is given by its changes, count along the chain named. Some of the results follow.

B1: UACUGAU (DNA:RNA)
RNA: GGGAGACCGGAAUUCAGAUUGUCCUACUGAUUUAAAUCCCGUCGUAGCCACCA
DNA 1: CAATCTGAATTCCGGTCTCCC
DNA 2: TGGTGGCTACGACGGGATT
B2: GAGCGGA (DNA:RNA)
RNA: B1 RNA with U25G, C27G, U28C, A30G, U31A
DNA 1: CAATCTGAATTCCGGTCTCCC
DNA 2: TGGTGGCTACGACGGGATT
B3: UUGAGUU (DNA:RNA)
RNA: B1 RNA with A26U, C27G, U28A, A30U
DNA 1: CAATCTGAATTCCGGTCTCCC
DNA 2: TGGTGGCTACGACGGGATT
B4: GGCGGCG (DNA:RNA)
RNA: B1 RNA with U25G, A26G, U28G, A30C, U31G
DNA 1: CAATCTGAATTCCGGTCTCCC
DNA 2: TGGTGGCTACGACGGGATT
B5: UAUACUC (DNA:RNA)
RNA: B1 RNA with C27U, U28A, G29C, A30U, U31C
DNA 1: CAATCTGAATTCCGGTCTCCC
DNA 2: TGGTGGCTACGACGGGATT
B6: ACGUGCA (DNA:RNA)
RNA: B1 RNA with U25A, A26C, C27G, A30C, U31A
DNA 1: CAATCTGAATTCCGGTCTCCC
DNA 2: TGGTGGCTACGACGGGATT
B7: CACGUAA (DNA:RNA)
RNA: B1 RNA with U25C, U28G, G29U, U31A
DNA 1: CAATCTGAATTCCGGTCTCCC
DNA 2: TGGTGGCTACGACGGGATT
B8: GAAGAGG (DNA:RNA)
RNA: B1 RNA with U25G, C27A, U28G, G29A, A30G, U31G
DNA 1: CAATCTGAATTCCGGTCTCCC
DNA 2: TGGTGGCTACGACGGGATT
B9: CUAAUGC (DNA:RNA)
RNA: GGGAGACCGGAAUUCAGAUUGUCCCUAAUGCUUAAAUCCCGUCGUAGCCACCA
DNA 1: CAATCTGAATTCCGGTCTCCC
DNA 2: TGGTGGCTACGACGGGATT
B10: UAUCUAA (DNA:RNA)
RNA: B1 RNA with C27U, U28C, G29U, U31A
DNA 1: CAATCTGAATTCCGGTCTCCC
DNA 2: TGGTGGCTACGACGGGATT
B11: GUCCGGU (DNA:RNA)
RNA: B1 RNA with U25G, A26U, U28C, A30G
DNA 1: CAATCTGAATTCCGGTCTCCC
DNA 2: TGGTGGCTACGACGGGATT
B12: UUUAUCC (DNA:RNA)
RNA: B9 RNA with C25U, A27U, G30C
DNA 1: CAATCTGAATTCCGGTCTCCC
DNA 2: TGGTGGCTACGACGGGATT
B13: GCGGUAC (DNA:RNA)
RNA: B9 RNA with C25G, U26C, A27G, A28G, G30A
DNA 1: CAATCTGAATTCCGGTCTCCC
DNA 2: TGGTGGCTACGACGGGATT
B14: GCUUUUC (DNA:RNA)
RNA: B9 RNA with C25G, U26C, A27U, A28U, G30U
DNA 1: CAATCTGAATTCCGGTCTCCC
DNA 2: TGGTGGCTACGACGGGATT
B15: AUGGGGG (DNA:RNA)
RNA: B9 RNA with C25A, A27G, A28G, U29G, C31G
DNA 1: CAATCTGAATTCCGGTCTCCC
DNA 2: TGGTGGCTACGACGGGATT
B16: UGGGCCA (DNA:RNA)
RNA: B1 RNA with A26G, C27G, U28G, G29C, A30C, U31A
DNA 1: CAATCTGAATTCCGGTCTCCC
DNA 2: TGGTGGCTACGACGGGATT
B17: AAACGUA (DNA:RNA)
RNA: B1 RNA with U25A, C27A, U28C, A30U, U31A
DNA 1: CAATCTGAATTCCGGTCTCCC
DNA 2: TGGTGGCTACGACGGGATT
B18: GAGUGUA (DNA:RNA)
RNA: B1 RNA with U25G, C27G, A30U, U31A
DNA 1: CAATCTGAATTCCGGTCTCCC
DNA 2: TGGTGGCTACGACGGGATT
B19: AUUGUCA (DNA:RNA)
RNA: B9 RNA with C25A, A27U, A28G, G30C, C31A
DNA 1: CAATCTGAATTCCGGTCTCCC
DNA 2: TGGTGGCTACGACGGGATT
B20: AGCCAUA (DNA:RNA)
RNA: B1 RNA with U25A, A26G, U28C, G29A, A30U, U31A
DNA 1: CAATCTGAATTCCGGTCTCCC
DNA 2: TGGTGGCTACGACGGGATT
B21: AUCAUAA (DNA:RNA)
RNA: B9 RNA with C25A, A27C, G30A, C31A
DNA 1: CAATCTGAATTCCGGTCTCCC
DNA 2: TGGTGGCTACGACGGGATT
B22: UAUUAAG (DNA:RNA)
RNA: B1 RNA with C27U, G29A, U31G
DNA 1: CAATCTGAATTCCGGTCTCCC
DNA 2: TGGTGGCTACGACGGGATT
B23: UGCCGAA (DNA:RNA)
RNA: B1 RNA with A26G, U28C, U31A
DNA 1: CAATCTGAATTCCGGTCTCCC
DNA 2: TGGTGGCTACGACGGGATT
B24: GGGUGAC (DNA:RNA)
RNA: B1 RNA with U25G, A26G, C27G, U31C
DNA 1: CAATCTGAATTCCGGTCTCCC
DNA 2: TGGTGGCTACGACGGGATT
B25: AAAGACG (DNA:RNA)
RNA: B9 RNA with C25A, U26A, A28G, U29A, G30C, C31G
DNA 1: CAATCTGAATTCCGGTCTCCC
DNA 2: TGGTGGCTACGACGGGATT
B26: CCUACGU (DNA:RNA)
RNA: B9 RNA with U26C, A27U, U29C, C31U
DNA 1: CAATCTGAATTCCGGTCTCCC
DNA 2: TGGTGGCTACGACGGGATT
B27: CGAUUCU (DNA:RNA)
RNA: B9 RNA with U26G, A28U, G30C, C31U
DNA 1: CAATCTGAATTCCGGTCTCCC
DNA 2: TGGTGGCTACGACGGGATT
B28: AGGCCUU (DNA:RNA)
RNA: B1 RNA with U25A, A26G, C27G, U28C, G29C, A30U
DNA 1: CAATCTGAATTCCGGTCTCCC
DNA 2: TGGTGGCTACGACGGGATT
B29: GGUGUUU (DNA:RNA)
RNA: B9 RNA with C25G, U26G, A27U, A28G, G30U, C31U
DNA 1: CAATCTGAATTCCGGTCTCCC
DNA 2: TGGTGGCTACGACGGGATT
B30: AUCUCUC (DNA:RNA)
RNA: B9 RNA with C25A, A27C, A28U, U29C, G30U
DNA 1: CAATCTGAATTCCGGTCTCCC
DNA 2: TGGTGGCTACGACGGGATT
B31: GCUGACC (DNA:RNA)
RNA: B9 RNA with C25G, U26C, A27U, A28G, U29A, G30C
DNA 1: CAATCTGAATTCCGGTCTCCC
DNA 2: TGGTGGCTACGACGGGATT

target: T1, RBFOX1 RRM RbFoxmut (Fox-RRM*) (Homo sapiens, UniProt Q9NWB1 109-208, R118D;E147R;N151S;E152T); experiment: EMSA; HiTS-Eq, 1 nM pool, 10 min; buffer printed only for the single-RNA assays: 10 mM Tris pH 7.5, 150 mM NaCl, 3.4 mM EDTA, 0.001% NP-40, 30 C; conditions: tags: His6 N-terminal (pET28a); label: 5' 32P
T1 sequence: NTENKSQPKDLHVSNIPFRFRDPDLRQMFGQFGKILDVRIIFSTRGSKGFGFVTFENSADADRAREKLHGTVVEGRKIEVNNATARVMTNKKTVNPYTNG
Outline: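 Purified RbFox RRM, wild type or mutant, was incubated for 10 min in 50 µL with 1 nM of a 5′-radiolabelled RNA pool carrying 7 randomized nucleotides, whose flanks were annealed to DNA oligonucleotides, over a series of increasing protein concentrations. Unbound RNA was resolved on 8% native PAGE, cut out, reverse-transcribed, barcoded by PCR and sequenced on an Illumina HiSeq 2500. Relative association constants were derived from changes in read counts for each RNA species versus the control reaction and normalised to the cognate motif.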

Row | Binder | binding signal
1 | B1 | 0.0723 KA relative to UGCAUGU
2 | B2 | 0.0939 KA relative to UGCAUGU
3 | B3 | 0.122 KA relative to UGCAUGU
4 | B4 | 0.123 KA relative to UGCAUGU
5 | B5 | 0.0468 KA relative to UGCAUGU
6 | B6 | 0.199 KA relative to UGCAUGU
7 | B7 | 0.128 KA relative to UGCAUGU
8 | B8 | 0.0495 KA relative to UGCAUGU
9 | B9 | 0.0851 KA relative to UGCAUGU
10 | B10 | 0.0736 KA relative to UGCAUGU
11 | B11 | 0.132 KA relative to UGCAUGU
12 | B12 | 0.0604 KA relative to UGCAUGU
13 | B13 | 0.104 KA relative to UGCAUGU
14 | B14 | 0.0442 KA relative to UGCAUGU
15 | B15 | 0.108 KA relative to UGCAUGU
16 | B16 | 0.115 KA relative to UGCAUGU

Row | Binder | binding signal
17 | B17 | 0.111 KA relative to UGCAUGU
18 | B18 | 0.258 KA relative to UGCAUGU
19 | B19 | 0.134 KA relative to UGCAUGU
20 | B20 | 0.0885 KA relative to UGCAUGU
21 | B21 | 0.124 KA relative to UGCAUGU
22 | B22 | 0.115 KA relative to UGCAUGU
23 | B23 | 0.131 KA relative to UGCAUGU
24 | B24 | 0.105 KA relative to UGCAUGU
25 | B25 | 0.095 KA relative to UGCAUGU
26 | B26 | 0.146 KA relative to UGCAUGU
27 | B27 | 0.081 KA relative to UGCAUGU
28 | B28 | 0.0636 KA relative to UGCAUGU
29 | B29 | 0.0966 KA relative to UGCAUGU
30 | B30 | 0.0692 KA relative to UGCAUGU
31 | B31 | 0.0965 KA relative to UGCAUGU
